Some of the results follow.

The text below walks through data of the antibiotic and cytotoxicity screens of Wong et al. (2023).

The test system of this assay is S. aureus RN4220. Briefly: growth inhibition call (relative growth <= 0.2). The settings on record: 50 µM.
With `O=C(C[C@H]1CC[C@@H]2[C@H](COC[C@H](O)CN2CC2CCOCC2)O1)N1CCOCC1`, the growth inhibition call was “inactive”. As to `CN1C(=O)c2cc(NC(=O)Cc3cccs3)ccc2OC[C@H]2O[C@@H](CC(=O)NCCCN3CCOCC3)CC[C@@H]21`, the growth inhibition call was “inactive”. Regarding `COC[C@@H]1CN(C(=O)c2cscn2)N1C`, the growth inhibition call was “inactive”.

As to `C/C=C/c1ccc2c(c1)O[C@H](CN(C)C(=O)c1ccc3c(c1)OCO3)[C@H](C)CN([C@H](C)CO)S2(=O)=O`, the growth inhibition call is “inactive”. Then `O=S1(=O)OC(c2ccc(O)cc2)(c2ccc(O)cc2)c2ccccc21`, with “inactive”; and `Cc1noc(C)c1NC(=O)N(C)C[C@@H]1Oc2cc(Br)ccc2S(=O)(=O)N([C@@H](C)CO)C[C@H]1C`, with “inactive”; and `CCN(CC)C(=O)c1ccc(O)c(OC)c1`, with “inactive”. Then `C[C@@H]1CN([C@H](C)CO)C(=O)c2cccc(NS(=O)(=O)c3cccs3)c2O[C@@H]1CN(C)Cc1ccc(Cl)c(Cl)c1`, with “inactive”. In the case of `COc1ccc(S(=O)(=O)N2C[C@@H](O)COC[C@@H]3O[C@H](CC(=O)NCCCN(C)C)CC[C@H]32)cc1`, the growth inhibition call was “inactive”. As for `C[C@H](CO)N1C[C@H](C)[C@@H](CN(C)Cc2ccc(C(F)(F)F)cc2)Oc2ccc(NC(=O)CCC(F)(F)F)cc2C1=O`, the entry is “inactive”; as for `CC(=O)OCC(=O)C1(O)CCC2C3CCC4=CC(=O)C=CC4(C)C3(Cl)C(Cl)CC21C` (stereo unspecified), “inactive”; as for `C[C@H](CO)N1C[C@H](C)[C@H](CN(C)C(=O)Nc2ccc(F)cc2)OCCCC[C@H](C)Oc2ccc(NC(=O)C3CCOCC3)cc2C1=O`, “inactive”.

Take `Cc1noc(C)c1S(=O)(=O)Nc1ccc2c(c1)CC(=O)N([C@@H](C)CO)C[C@@H](C)[C@H](CN(C)S(=O)(=O)c1ccc(Cl)cc1)O2`: the growth inhibition call was “inactive”. For `Cc1ccc(S(=O)(=O)Nc2ccc3c(c2)C(=O)N([C@H](C)CO)C[C@@H](C)[C@@H](CN(C)C(=O)Nc2ccc4c(c2)OCO4)OCCCC[C@H](C)O3)cc1`, the growth inhibition call was “inactive”. Then `CC(=O)NS(=O)(=O)c1ccc(N)cc1`, with “inactive”; and `C=CC[C@@H](CC(=O)NCCO)C(=O)NC[C@H](OC(=O)[C@H](CC=C)CC(=O)OC(C)(C)C)c1ccccc1`, with “inactive”. As for `C[C@@H]1CCCCO[C@@H](CN(C)C(=O)NC2CCCCC2)[C@H](C)CN([C@@H](C)CO)C(=O)c2cc(NC(=O)Cc3ccccc3)ccc2O1`, the entry is “inactive”; as for `CNC(=C[N+](=O)[O-])NCCSCc1csc(CN(C)C)n1`, “inactive”; as for `O=c1ccc2c[nH][nH]c-2c1`, “inactive”. Then `CC(C)NC(=O)N(C)C[C@H]1Oc2ccc(NS(=O)(=O)c3ccccc3)cc2CC(=O)N([C@H](C)CO)C[C@@H]1C`, with “inactive”; and `C[C@H]1CN([C@@H](C)CO)C(=O)Cc2cc(NC(=O)CCC(F)(F)F)ccc2O[C@H]1CN(C)S(=O)(=O)c1cccs1`, with “inactive”. Regarding `CCS(=O)(=O)N(C)C[C@@H]1OCc2ccccc2-c2c(n(C)c3ccccc23)C(=O)N([C@H](C)CO)C[C@@H]1C`, the growth inhibition call is “inactive”. In the case of `Cc1noc(C)c1NC(=O)Nc1ccc2c(c1)C(=O)N([C@H](C)CO)C[C@H](C)[C@H](CN(C)S(=O)(=O)c1ccc(F)cc1)OCCCC[C@@H](C)O2`, the growth inhibition call was “inactive”. For `C[C@H](CO)N1C[C@H](C)[C@@H](CN(C)S(=O)(=O)c2cccs2)Oc2ccc(NC(=O)Nc3cccc4ccccc34)cc2C1=O`, the growth inhibition call was “inactive”.

With `C[C@H]1CN([C@@H](C)CO)C(=O)Cc2cc(NS(=O)(=O)c3ccc(F)cc3)ccc2O[C@H]1CN(C)S(=O)(=O)c1ccccc1`, the growth inhibition call was “inactive”. Consider `CO[C@H](CN(C)C(=O)Nc1ccc(C(F)(F)F)cc1)[C@H](C)CN(Cc1ccccc1Cl)[C@@H](C)CO`, for which the growth inhibition call is “inactive”.

For `CCS(=O)(=O)N1CC[C@]2(CC1)CN(Cc1ccccc1OC)[C@H](CO)c1c2c2ccc(cc2n1C)OC`, the growth inhibition call is “inactive”. Then `C[C@H](CO)N1C[C@H](C)[C@H](CN(C)Cc2ccc(C(=O)Nc3ccccc3N)cc2)OCCCC[C@H](C)Oc2ccc(NC(=O)C3CCCCC3)cc2C1=O`, with “inactive”; and `C[C@@H]1CN([C@H](C)CO)C(=O)Cc2cc(NS(=O)(=O)c3ccc(Cl)cc3)ccc2O[C@@H]1CN(C)C(=O)Nc1ccc(C(F)(F)F)cc1`, with “inactive”; and `CC(=O)c1ccc(OCc2nnn(CC(=O)NS(=O)(=O)Cc3ccccc3)c2-c2ccccc2)cc1`, with “inactive”.

Regarding `C[C@@H]1CN([C@@H](C)CO)C(=O)c2cc(NC(=O)NC3CCCCC3)ccc2O[C@@H](C)CCCCO[C@@H]1CN(C)C(=O)CCC(F)(F)F`, the growth inhibition call was “inactive”.
